# Source: PMC4336329 (PLoS ONE, 2015)
# In all, about 310,000 compounds went through this assay and about 14,000 (4.5%) showed an effect of 50% or more. Effects have a minus sign here. This is one part of the list.
# Target: human ether-à-go-go-related gene (hERG) potassium channel (human, UniProt Q12809)
# Experiment: primary screen, population patch clamp on CHO cells stably expressing hERG
# 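Also: peak tail current of the secondary pulse compared with the same well before compound.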
# Chain of human ether-à-go-go-related gene (hERG) potassium channel (Q12809 whole entry, looked up): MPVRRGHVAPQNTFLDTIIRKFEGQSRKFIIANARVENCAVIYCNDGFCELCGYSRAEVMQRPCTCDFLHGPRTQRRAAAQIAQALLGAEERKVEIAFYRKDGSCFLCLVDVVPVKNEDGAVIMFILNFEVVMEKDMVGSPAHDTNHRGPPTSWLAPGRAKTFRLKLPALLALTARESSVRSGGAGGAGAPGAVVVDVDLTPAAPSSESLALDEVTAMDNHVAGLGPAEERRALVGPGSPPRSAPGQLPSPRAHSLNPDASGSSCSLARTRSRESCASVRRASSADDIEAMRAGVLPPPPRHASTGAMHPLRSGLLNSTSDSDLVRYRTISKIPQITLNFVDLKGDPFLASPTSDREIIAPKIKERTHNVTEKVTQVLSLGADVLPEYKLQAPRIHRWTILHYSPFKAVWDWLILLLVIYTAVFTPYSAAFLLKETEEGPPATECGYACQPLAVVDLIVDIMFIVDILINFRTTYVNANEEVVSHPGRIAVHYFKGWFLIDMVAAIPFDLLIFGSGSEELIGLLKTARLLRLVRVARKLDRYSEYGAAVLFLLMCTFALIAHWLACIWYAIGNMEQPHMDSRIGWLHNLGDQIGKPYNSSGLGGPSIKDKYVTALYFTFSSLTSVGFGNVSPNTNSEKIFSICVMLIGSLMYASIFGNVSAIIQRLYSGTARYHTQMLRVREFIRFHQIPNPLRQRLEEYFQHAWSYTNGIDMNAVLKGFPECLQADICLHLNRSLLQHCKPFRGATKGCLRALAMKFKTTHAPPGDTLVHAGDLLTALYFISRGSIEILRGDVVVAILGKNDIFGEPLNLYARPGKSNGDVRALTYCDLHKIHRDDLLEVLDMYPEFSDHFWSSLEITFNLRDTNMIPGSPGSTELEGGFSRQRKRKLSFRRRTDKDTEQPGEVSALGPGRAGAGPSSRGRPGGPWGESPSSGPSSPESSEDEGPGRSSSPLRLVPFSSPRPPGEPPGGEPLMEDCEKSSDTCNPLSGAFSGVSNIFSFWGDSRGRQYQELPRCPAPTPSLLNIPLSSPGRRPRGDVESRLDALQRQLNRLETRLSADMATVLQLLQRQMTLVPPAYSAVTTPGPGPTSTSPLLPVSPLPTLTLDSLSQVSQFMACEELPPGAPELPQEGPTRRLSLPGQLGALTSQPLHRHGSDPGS
row,SMILES,"hERG current change (%, negative = inhibition) at 10uM [%]"
1,C=CCn1c(NC(=O)c2ccccc2Cl)c(C#N)c2nc3ccccc3nc21,-13.2
2,Cn1c(CC(=O)Nc2ccc(F)cc2)nnc1SCC(=O)Nc1nncs1,17.6
3,O=C(CN1C(=O)NC2(CCCC2)C1=O)N1CCN(S(=O)(=O)c2cc(Cl)ccc2Cl)CC1,-20.8
4,COc1ccc(CCN(C)C(=O)c2ccc(S(=O)(=O)Nc3ccccc3C)cc2)cc1OC,-3.26
5,CCn1nc(C)c(NC(=O)CCSc2nc(-c3ccco3)cc(C(F)(F)F)n2)c1C,-13.8
6,CCn1c2ccccc2c2cc(NC(=O)C(C)Oc3ccccc3)ccc21 (stereo not shown),-6.52
7,CC(=O)c1ccc(N2CCN(C(=O)CN3C(=O)NC4(CCCCC4)C3=O)CC2)c(F)c1,0.416
8,O=C(NC(=S)Nc1ccc2nc[nH]c2c1)c1ccccc1,12.4
9,O=C(NCCCN1CCCC1=O)Nc1ccccc1Cl,15
10,COc1ccc(CCNc2nc(-c3ccc(F)cc3)c(CC(=O)O)s2)cc1OC,6.64
11,CS(=O)(=O)Nc1ccc(C2=NN(C(=O)c3ccco3)C(c3cccc(F)c3)C2)cc1 (stereo not shown),-78.3
12,Cc1ccc2nc(NC(=O)c3ccc(-c4nc5ccccc5s4)s3)sc2c1,0.614
13,Cn1c(Cc2ccccc2)nnc1SCc1cc(=O)n2ccsc2n1,35.1
14,C[C@@H](C(=O)NC1CCCCC1)N1C(=O)N2CCc3c([nH]c4ccccc34)[C@@]2(C)C1=O,-20.7
15,CC1=NN(c2ccc(Cl)c(C(=O)O)c2)C(=O)C1,1.19
16,Cc1ccc(S(=O)(=O)N2CCN(C(=O)c3ccc4nc[nH]c4c3)CC2)cc1,-0.239
17,COc1ccccc1NC(=O)CC(=O)Nc1ccccc1OC,6.01
18,Cc1cccc(N(Cc2ccc(Cl)cc2)S(C)(=O)=O)c1,21.1
19,O=C(CNC(=S)N(CCCN1CCOCC1)Cc1cccs1)NC1CCCC1,-19.7
20,O=c1c2ccccc2nc(SCc2nc3ccccc3s2)n1CCCO,-4.88
21,Cc1ccc(C(=O)NCC(=O)OCC(=O)c2cc(C)n(Cc3ccco3)c2C)cc1,-12.1
22,CC1COc2ccccc2N1C(=O)c1ccc(Cl)cc1 (stereo not shown),15.7

row,SMILES,"hERG current change (%, negative = inhibition) at 10uM [%]"
1,O=C(CSc1ncc(C(F)(F)F)cc1Cl)N1CCN(S(=O)(=O)c2ccccc2)CC1,-32.7
2,C/C(Cl)=C/Cn1c(SCCN2CCOCC2)nc2c1c(=O)[nH]c(=O)n2C,-64.6
3,Cc1ccc(S(=O)(=O)N(C)c2ccccc2)cc1,-11.8
4,O=C(COC(=O)c1ccccc1Br)Nc1ccc2[nH]c(=O)[nH]c2c1,-2.99
5,Cc1sc2ncnc(N3CCC(C(=O)Nc4ccc(C#N)c(Cl)c4)CC3)c2c1C,-7.2
6,COCCn1cnc2c1c(=O)n(Cc1cc(C(C)=O)ccc1OC)c(=O)n2Cc1ccccc1,-30.8
7,COc1ccccc1-n1c(O)c(C=NC2CC2)c(=O)[nH]c1=O,-8.21
8,C=CCN(CC=C)CC(=O)Nc1ccc(S(N)(=O)=O)cc1,-9.56
9,Cc1nn(CCC(=O)NNC(=S)Nc2ccc([N+](=O)[O-])cc2)c(C)c1[N+](=O)[O-],-27.4
10,N#CC1=C(S)N(c2ccccc2)C(c2ccco2)NC1=O (stereo not shown),14.3
11,O=C(CSc1nc2c(c(=O)n1-c1ccc(Br)cc1)SCC2)NCC1CCCO1 (stereo not shown),-60.9
12,Cc1ccc(-n2c(SCC(N)=O)nc(O)cc2=O)cc1,23
13,c1ccc(-c2nc3cc4ccccc4cc3[nH]2)nc1,8.33
14,CC(=O)c1cccc(CN2CCCC(CCC(=O)NCc3ccccc3F)C2)c1 (stereo not shown),-48.5
15,CCn1c(CNC(=O)c2cccnc2)cc2ccccc21,2.41
16,CCc1ccc(-c2nc(CN3CCC(C(=O)N4CCN(c5ccccn5)CC4)CC3)c(C)o2)cc1,-68.5
17,O=C1CCCCCCC1Sc1ccccc1[N+](=O)[O-] (stereo not shown),-15.8
18,CC(C)COC(=O)c1ccc(N2C(=O)c3ccccc3C2=O)cc1,12
19,O=C(Nc1cnn(Cc2ccc(Cl)cc2)c1)c1ccc([N+](=O)[O-])cc1,-31.4
20,N#CCc1ccc(Oc2ncc(C(F)(F)F)cc2Cl)cc1,-3.13
21,O=C1Cc2cc(S(=O)(=O)Nc3cccc([N+](=O)[O-])c3)cc3c2N1CCC3,-4.79
22,CN(C)/C=N/C(=S)Nc1ccc(Cl)c(Cl)c1,6.42

row,SMILES,"hERG current change (%, negative = inhibition) at 10uM [%]"
1,COc1ccccc1CCNC(=O)C1CCC(=O)N(C2CCCCCC2)C1 (stereo not shown),-7.62
2,CCOc1ccccc1OCC(=O)Oc1ccc(C)c(C)c1,6.76
3,COCP(=O)(c1ccccc1)c1ccccc1,-0.335
4,CC(C)C(=O)Nc1cccc(C(=O)N2CCCCC2C)c1 (stereo not shown),-0.33
5,CCN(CC)c1ccc(/C=C2\C(=O)N(c3nnc(C)c(=O)[nH]3)N=C2C)cc1,-35.7
6,Cc1ccc(/C=C/C(=O)c2ccc(O)cc2)cc1,5.72
7,CCN(c1c(C)n(C)n(-c2ccccc2)c1=O)S(C)(=O)=O,21.5
8,COCCCNC(=O)c1ccc2c(=O)n(Cc3ccc4c(c3)OCO4)c(=S)[nH]c2c1,2.75
9,COc1ccc(-c2nc3nc(C)cc(=O)n3[nH]2)cc1,17.9
10,CC1(C)CC(=O)C2=C(C1)NC(Nc1nc3ccccc3o1)=NC21CCCCC1,2.86
11,O=C(OCCCN=C1NS(=O)(=O)c2ccccc21)c1cccs1,1.64
12,O=C(CN1C(=O)S/C(=C\c2ccccc2)C1=O)NNC(=O)c1ccccc1O,2.95
13,CCN1C(=O)CS/C1=N\S(=O)(=O)c1ccc(C)cc1,0.522
14,CCOc1ccc(S(=O)(=O)N2CCC(C(=O)NC3CC3)CC2)cc1Cl,-2.44
15,COc1ccc(C(=O)N2CCC(O)(c3ccc(F)cc3)CC2)cc1OC,-38.6
16,O=C(O)CC(NC(=O)c1cccc(F)c1)c1ccc(OC2CCCC2)cc1 (stereo not shown),15.1
17,CCOC(=O)CON1C(=O)c2ccccc2C1=O,-5.5
18,Clc1ccccc1CSc1cc2c(nn1)-c1ccccc1CC2,-38
19,COc1ccc(CN2CCN(C(=O)CCC(=O)c3ccc(C)s3)CC2)cc1OC,-20.3
20,CCOC(=O)C1CCN(Cc2ccc3ccccc3c2)CC1,-17.1
21,CCSc1nnc(NC(=O)CN2C(=O)NC3(CCCC3)C2=O)s1,0.00088
22,CCCCNc1c(-c2cccc(SC3CCCCC3)c2)nc2ccc(Cl)cn12.O=C(O)C(F)(F)F,3.32

row,SMILES,"hERG current change (%, negative = inhibition) at 10uM [%]"
1,CSc1ccc(CNc2ccc(Cl)cc2)cc1,0.308
2,O=C(NCCC1=CCCCC1)c1cccc2c1C(=O)N(C1CCCCC1)C2,9.87
3,Nc1nn(S(=O)(=O)c2cccc3nsnc23)cc1-c1ccc(Br)cc1,-3
4,CCOc1ccc(C(=O)CCC(=O)N(CC)CC(=O)NCc2ccc(Cl)cc2)cc1,-70.3
5,O=c1[nH]c2ccc(Cl)cc2c(O)c1-c1ccccc1,15.6
6,COCc1nnc(NC(=O)CSCc2ccccc2)s1,16.9
7,COC(=O)c1cccc(COC(=O)CNC(=O)c2ccco2)c1,6.79
8,CC(c1ccccc1)N1CCc2[nH]c(=S)[nH]c(=O)c2C1 (stereo not shown),11
9,O=S(=O)(c1ccccc1)N1c2cc(Cl)ccc2Oc2nc3ccccc3nc21,-5.04
10,Cc1nc(N2CCCCC2)sc1C=O,22.9
11,CCC(C(=O)OCC(=O)Nc1ccc(F)cc1)c1ccccc1 (stereo not shown),-28.7
12,OCC1CCCCN1CCNCc1cn[nH]c1-c1cccc2ccccc12 (stereo not shown),-29.1
13,C=CCn1c2ccccc2c2nnc(SCC(N)=O)nc21,18.3
14,Cc1cc(C)cc(-n2cccc2/C=C2/C(=N)N3C(=NC2=O)SN=C3S(C)(=O)=O)c1,-12.6
15,O=C(CSc1nccn1-c1ncc(C(F)(F)F)cc1Cl)c1ccc(Cl)cc1,-1.36
16,CCCC(=O)N(Cc1cc(=O)[nH]c2ccccc12)c1ccc(C)cc1C,-6.27
17,CC(=O)Nc1cccc(Oc2nc(C(F)(F)F)nc3ccccc23)c1,-6.7
18,COC(=O)C1=C(C)NC(C)=C(C(=O)OC)C1c1ccccc1OCc1c(C)no[n+]1[O-],-22
19,CC1CC(C)(C)NC(=S)N1CCCC(=O)Nc1ccc(F)cc1 (stereo not shown),18.3
20,COc1cccc(-n2c(/C=C/c3ccccn3)nc3ccccc3c2=O)c1,7.03
21,Cc1ccc(NS(=O)(=O)c2ccc(C(=O)N3CC(C)OC(C)C3)cc2)cc1 (stereo not shown),14.2
22,Cc1ccc(-n2ncc(C(=O)NCc3ccc4c(c3)OCO4)c2NC(=O)c2ccco2)cc1C,-22.4
